Results published in ChEMBL document CHEMBL4888484, “Replenishing the malaria drug discovery pipeline: Screening and hit evaluation of the MMV Hit Generation Library 1 (HGL1) against asexual blood stage Plasmodium falciparum ,using a nano luciferase reporter read-out” (2022).
“And” between values parts separate entries of the source, which are not always exact repeats. Equal values may be shown once. Screen size: about 150,000 compounds; about 540 (0.36%) showed an effect of 50% or more. The list shows a part of the results.

Tested on: Plasmodium falciparum
Test: Primary screen in NF54 nanoGlo assay, in single point, at 2uM, 72h; a lower Z score goes with more inhibition
Format: functional, Erythrocyte
Details: timepoint 72 hour

Row | SMILES | % Inhibition [%] | Z score | % Inhibition (2 µM)
1 | COc1ccccc1CC(=O)N1CCC1 | -7 | 0.98 | –
2 | CC[C@@]1(C)CCCN(C(=O)c2nc3cccnc3[nH]2)C1 | -1 | 0.11 | –
3 | COc1cccc(C2=C[C@@H](c3ccccc3)N3N=NNC3=N2)c1 | 8 | -0.98 | –
4 | C[C@H]1c2cc(Cl)c(Cl)cc2CCN1C(=O)CCn1cncn1 | -1 | 0.1 | –
5 | COC(=O)[C@@H](O)C1CCN(C(=O)OC(C)(C)C)CC1 | -7 | 1.2 | –
6 | CO[C@@]12CC[C@@H](NC(=O)COC(C)C)C[C@@H]1N(C(=O)c1ccoc1)CC2 | -10 | 1.88 | –
7 | COC[C@H](NC(=O)N1CCC(c2nc3cccc(C)c3o2)CC1)C1CC1 | -6 | 1.22 | –
8 | CCOc1cc(C(=O)N(C)C[C@H]2COc3ccccc3O2)n[nH]1 | -1 | 0.08 | –
9 | CCOC(=O)N1CCC(N2C[C@@]34C=C[C@@H](O3)C(C(=O)Nc3ccc(C)c(F)c3)[C@@H]4C2=O)CC1 (some centres undefined) | -6 | 0.83 | –
10 | CCCN(C[C@H]1CCOC1)C(=O)Nc1ccccc1Br | 4 | -0.46 | –
11 | CCOC(=O)N1CCN(C(=O)c2cn3cc(-c4ccc(C(F)(F)F)cc4)ccc3n2)CC1 | -14 | 1.71 | –
12 | CNC(=O)N1CCC(CC(F)(F)F)CC1 | -6 | 0.6 | –
13 | CCn1ncc(NC(=O)Cn2nc(C)c(-c3cnc4ccccc4c3)c2C)n1 | -8 | 1 | –
14 | CCOCC(=O)NC1CCN(Cc2cnc(C)s2)CC1C (centres undefined) | 5 | -0.69 | –
15 | O=C(CCc1c[nH]c2ccccc12)Nc1ccccc1-n1cncn1 | -2 | 0.23 | –
16 | Cc1cc(C)c2[nH]c(C(=O)N(C)[C@@H](C)c3c(C)n[nH]c3C)c(C)c2c1 | -3 | 0.45 | –
17 | CN(C)c1ccccc1NCc1cnc2cnccn12 | -15 | 2.51 | –
18 | CC(NCC1CC(O)CN1Cc1ccccc1)c1cnn(C)c1 (centres undefined) | -3 | 0.62 | –
19 | CCCCN(C)c1ncc(Cl)c(C(=O)N2CC[C@H](C(N)=O)C2)n1 | 0 | 0.01 | –
20 | Cc1ccc([C@]2(C)NC(=O)N(Cc3cccc(F)c3F)C2=O)o1 | 0 | -0.06 | –
21 | C1=CC2CC1CC2CN1CCC(c2ccn[nH]2)CC1 (centres undefined) | -2 | 0.28 | –
22 | C[C@@H](CCO)Nc1ncccc1C(F)(F)F | 5 | -0.92 | –

Row | SMILES | % Inhibition [%] | Z score | % Inhibition (2 µM)
23 | CCN(CC)S(=O)(=O)c1cc(-c2nc(C)cs2)n(CC(=O)N2CCCCC2)c1 | 0 | 0.03 | –
24 | CC(=O)N1CCC(C(=O)OCCc2ccc(F)cc2)CC1 | -3 | 0.37 | –
25 | CC(C)(C)c1ncc(CN2CCC(O)(C(F)(F)F)CC2)s1 | -4 | 0.58 | –
26 | c1cnc(NCc2cc3n(n2)CCN(Cc2ccoc2)C3)cn1 | -11 | 1.99 | –
27 | CCN(CC(C)(C)O)C(=O)C1CC1c1cccc2ccccc12 (centres undefined) | -5 | 0.73 | –
28 | CC1CC(C)(C)C(CNC(=O)c2cnnn2C)C1NC(=O)c1cnnn1C (centres undefined) | -2 | 0.22 | –
29 | O=C1C[C@@H](c2ccccc2)NCCCCCCN1 | -16 | 2.32 | –
30 | Cc1cc2c(N3CC[C@@]4(CCCN(C5CCCCC5)C4=O)C3)ncnc2s1 | -30 | 3.97 | –
31 | Cc1cn2nc(N[C@H]3CCN(C4CCCC4)C3)ccc2n1 | 2 | -0.44 | –
32 | Cc1ccnc(NC(=O)c2ccc(-c3ccccc3F)o2)c1 | -4 | 0.69 | –
33 | Cn1nc(-c2ccccc2)c2c1c(-c1ccccc1)nn2C | -36 | 4.26 | –
34 | C[C@]1(C(=O)NCc2nnc3ccccn23)CC1(Cl)Cl | -3 | 0.42 | –
35 | Cc1ccc(NC(=O)NC(=O)[C@H](C)N(C)CC(=O)Nc2cccc(C)c2C)c(C)c1 | -2 | 0.17 | –
36 | CN(C)CC[C@@H](c1ccc(Cl)cc1)c1ccccn1 [DEXCHLORPHENIRAMINE] | 28 | -3.19 | –
37 | CC(C)Cc1cc(C(=O)N(C)C[C@H](C)CN2CCCC2)on1 | -5 | 1.04 | –
38 | CN(CC(C)(C)O)C(=O)N[C@H]1CCCOc2c1ccc1ccccc21 | -11 | 1.23 | –
39 | CCN1CCC(N2CCc3onc(-c4ccccc4F)c3C2)CC1 | -11 | 1.55 | –
40 | CN(CCC1OCCO1)c1ccc(F)cc1 | -7 | 0.96 | –
41 | O=C(Nc1c[nH]nc1-c1ccccc1)c1ccc2c(c1)C(=O)N(C[C@H]1CCCO1)C2=O | -5 | 0.93 | –
42 | CCCS(=O)(=O)N1CC(=O)N(c2ccccc2CC)[C@](C)(C(=O)NC2CCCC2)C1 | -10 | 1.24 | –
43 | CC(C)c1cc(Nc2ccc3ccccc3c2)n2nc(-c3cccnc3)nc2n1 | 7 | -1.21 | –
44 | Cn1cc(-c2ccc(C(=O)NC(C)(C)[C@H](O)C(F)(F)F)o2)cn1 | -9 | 1.22 | –

Row | SMILES | % Inhibition [%] | Z score | % Inhibition (2 µM)
45 | Cc1cc(CN2CCN([C@@H](C)C(=O)Nc3nccs3)CC2)on1 | -1 | 0.14 | –
46 | CCCC[C@H](O)CN1CCN(c2nc(-c3ccccc3)nc(CC)c2Cc2ccccc2F)CC1 | 7 | -0.92 | –
47 | C[C@@H]1CN(CCCC(=O)c2ccc(F)cc2)CC[C@]1(C)O | -3 | 0.43 | –
48 | CCC(=O)N1CCC[C@@H]1c1nc(C(C)(C)C)co1 | -4 | 0.6 | –
49 | CC(C)c1ccc2nc(-c3cnc4cnccn34)[nH]c(=O)c2c1 | -2 | 0.24 | –
50 | CC1CCC(NC(=O)[C@H]2CCCN(S(=O)(=O)c3ccc4c(c3)NC(=O)CO4)C2)CC1 (some centres undefined) | 1 | -0.17 | –
51 | Cc1cc(CN(C)C(=O)[C@H](C)N2CCN(C)CC2)ccn1 | -3 | 0.57 | –
52 | O=C(c1ccc2[nH]ccc2c1)N1CCC(c2nccn2CC2CC2)CC1 | -13 | 1.62 | –
53 | COCCO/C(=N/C(=O)c1ccc2c(c1)OCO2)NCc1ccc2c(c1)OCO2 | 7 | -0.95 | –
54 | COc1cc(NC(=O)NCCC2(O)CCC2)c(OC)c(C)c1OC | -6 | 0.6 | –
55 | Cc1cc(N2CCN(S(=O)(=O)c3ccccc3F)CC2)nc(N2CCOCC2)n1 | 1 | -0.21 | –
56 | CCOc1cc(CN2CCOC3(CCCC3)C2)ccc1OC | -14 | 2.23 | –
57 | COc1cc(-c2ncc(F)c(N3CCOCC3)n2)c(Cl)cn1 | 8 | -1.36 | –
58 | Cc1nc(CN(C)CC[C@H]2CCCCO2)n(C)c1C | -15 | 2.36 | –
59 | COC(=O)N1CCCC[C@H]1C(=O)N(C)CC1(CO)CCC1 | -11 | 1.73 | –
60 | CCc1noc(CON=C(N)c2ccccc2)n1 | 3 | -0.39 | –
61 | Cc1c(CNC2CCCCC2)c(C(=O)O)c(C)n1Cc1ccccc1Cl | -5 | 0.63 | –
62 | CCn1nc(C)c(C(=O)N[C@@H](C2CCOCC2)C2(CO)CCC2)n1 | -6 | 0.69 | –
63 | COCCc1nnc(NC(=O)[C@H](C)Oc2ccccc2)o1 | 2 | -0.22 | –
64 | Cc1noc(C)c1[C@H](C)NCc1nc(C(C)(C)C)no1 | -4 | 0.4 | –
65 | Cc1cc(C)cc(CN2CCN(C(=O)c3ccc(CO)o3)CC2=O)c1 | -17 | 1.92 | –
66 | Cc1nn(-c2ccc(F)cc2)c2c1c(=O)c(C(=O)Nc1cccc(Cl)c1)cn2C | 0 | -0.01 | –

Row | SMILES | % Inhibition [%] | Z score | % Inhibition (2 µM)
67 | CC(C)COCCC(=O)NCCCN1C(=O)CCC1=O | -2 | 0.34 | –
68 | COc1ccc(NCC(=O)Nc2cc(C(F)(F)F)cc(NC(=O)CNc3ccc(OC)cc3)c2Cl)cc1 | -10 | 1.34 | –
69 | O=C(c1ccc(O)c(F)c1)N1CCCCC12CC2 | -15 | 1.42 | –
70 | CCCN1CCC(N2CCN(S(=O)(=O)c3ccc4ccccc4c3)CC2)CC1 | – | – | 0% and -6%
71 | C[C@](O)(CNC(=O)Cc1cccc(O)c1)C1CCCC1 | -16 | 1.33 | –
72 | Cc1nn(C)c(C)c1C(=O)C(=O)N1CCC(O)CC1 | -4 | 0.62 | –
73 | CCc1c(C)sc(NC(=O)[C@H](CC)c2ccccc2)c1C(=O)N1CCOCC1 | -4 | 0.47 | –
74 | FC(F)(F)c1ccccc1CN1CCc2nncn2CC1 | 5 | -0.75 | –
75 | Cc1c(C(=O)NC[C@H]2CCCC(C)(C)O2)nnn1C(C)C | -2 | 0.2 | –
76 | NS(=O)(=O)C1CCN(C(=O)[C@H]2C3CCC(CC3)[C@@H]2C(F)(F)F)CC1 | -7 | 1.37 | –
77 | CCOc1cc(CNCc2ccoc2)ccc1O[C@@H](C)C(=O)N(C)C | -11 | 1.73 | –
78 | CCN(CC1CCCO1)C(=O)NC1C(C)CCCC1C (centres undefined) | -11 | 1.49 | –
79 | COc1nccnc1N(C)Cc1cnn(C)c1C | -5 | 0.98 | –
80 | Cc1nnc(NCc2ccc(-c3cccc(Cl)c3Cl)o2)n1C | -8 | 0.79 | –
81 | O=S(=O)(c1cccnc1NCc1cscn1)N1CCCCC1 | -8 | 1.49 | –
82 | COC(=O)c1ccc(NC(=O)CN2CCN(c3cccc(Cl)c3)C2=O)cc1 | 0 | 0.05 | –
83 | CN(Cc1ccc[nH]1)C(=O)NCc1cnccc1C(C)(C)C | -10 | 1.09 | –
84 | Cc1ccc2nc(-c3ccccc3)c(NC(=O)c3ccc(S(=O)(=O)N4CCOCC4)cc3)n2c1 | -50 | 5.92 | –
85 | Cc1nc(C(=O)NCCCN2CCC[C@H](C)C2)cs1 | -13 | 1.8 | –
